In all, about 310,000 compounds went through this assay and about 14,000 (4.5%) showed an effect of 50% or more. The effect is printed as a negative number. The list shows a part of the results.
Molecular target: human ether-à-go-go-related gene (hERG) potassium channel (human, UniProt Q12809)
Assay: primary screen, population patch clamp on CHO cells stably expressing hERG
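Further: peak tail current of the secondary pulse compared with the same well before compound.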

Sequence of human ether-à-go-go-related gene (hERG) potassium channel (Q12809 whole entry, looked up): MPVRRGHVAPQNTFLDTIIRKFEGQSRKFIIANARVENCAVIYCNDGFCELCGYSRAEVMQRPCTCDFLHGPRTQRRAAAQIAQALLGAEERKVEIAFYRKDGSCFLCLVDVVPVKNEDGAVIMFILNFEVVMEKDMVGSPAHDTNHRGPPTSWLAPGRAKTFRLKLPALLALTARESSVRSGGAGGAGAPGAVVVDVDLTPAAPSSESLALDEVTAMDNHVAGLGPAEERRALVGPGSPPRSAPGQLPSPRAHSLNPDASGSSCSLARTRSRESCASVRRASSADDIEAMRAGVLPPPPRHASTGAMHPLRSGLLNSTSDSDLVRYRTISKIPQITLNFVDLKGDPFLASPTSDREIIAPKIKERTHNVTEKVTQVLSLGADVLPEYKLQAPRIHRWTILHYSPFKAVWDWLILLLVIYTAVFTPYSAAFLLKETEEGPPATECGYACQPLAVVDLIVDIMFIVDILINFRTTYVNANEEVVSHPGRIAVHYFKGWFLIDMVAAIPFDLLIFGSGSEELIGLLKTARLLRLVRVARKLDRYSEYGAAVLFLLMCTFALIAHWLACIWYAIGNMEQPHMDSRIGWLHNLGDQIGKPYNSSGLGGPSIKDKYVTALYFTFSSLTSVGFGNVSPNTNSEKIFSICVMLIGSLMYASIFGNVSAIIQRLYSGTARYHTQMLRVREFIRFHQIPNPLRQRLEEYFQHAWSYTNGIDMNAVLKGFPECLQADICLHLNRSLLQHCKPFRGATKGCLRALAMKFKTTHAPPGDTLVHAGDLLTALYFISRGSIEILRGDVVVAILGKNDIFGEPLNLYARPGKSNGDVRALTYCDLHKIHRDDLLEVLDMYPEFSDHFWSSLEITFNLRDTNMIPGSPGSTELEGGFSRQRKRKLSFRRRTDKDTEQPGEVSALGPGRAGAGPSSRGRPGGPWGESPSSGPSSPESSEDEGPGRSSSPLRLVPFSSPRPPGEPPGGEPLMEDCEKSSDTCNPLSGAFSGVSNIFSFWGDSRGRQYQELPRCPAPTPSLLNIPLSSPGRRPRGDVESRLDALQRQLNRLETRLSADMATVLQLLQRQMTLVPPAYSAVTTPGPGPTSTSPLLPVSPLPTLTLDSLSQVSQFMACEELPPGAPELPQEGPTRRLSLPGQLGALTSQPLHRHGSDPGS

Row | SMILES | hERG current change (%, negative = inhibition) at 10uM [%]
1 | CCOc1cccc(CN2CCCC(CCC(=O)NCc3ccccc3F)C2)c1O (centres unmarked) | -65
2 | O=C(Nc1cc(C(F)(F)F)ccc1N1CCOCC1)C1CC1 | -5.99
3 | CCN(CC)c1ccc(NC(=O)CCS(=O)(=O)c2cccc3nsnc23)c(C)c1 | 4.25
4 | COc1nc(N)nc(N)c1NS(=O)(=O)c1ccc(C)cc1 | 12.1
5 | Cc1ccc(C(=O)CSc2nnc(-c3ccncc3)n2C)cc1 | -3.2
6 | COc1cccc(C(=O)N2N=C(c3ccccn3)CC2(O)C(F)(F)F)c1 (centres unmarked) | 9.73
7 | O=C(COc1ccccc1)Nc1ccc(N2CCN(C(=O)c3cccs3)CC2)cc1 | -10.9
8 | C/C(=C\c1ccco1)C1Nc2cccc3cccc(c23)N1 | -5.56
9 | CCOc1ccc(C2(C#N)CC[N+](C)(C)CC2)cc1.[Br-] | 2.83
10 | O=C(N=Nc1c(O)[nH]c2ccccc12)c1cc(-c2cccs2)[nH]n1 | 2.84
11 | O=C(Cc1c(O)c2ccccc2[nH]c1=O)N(Cc1ccccc1)Cc1ccccc1 | 3.37
12 | COCCn1c(=O)c2c(nc3n2CC(C)CN3CCc2ccccc2)n(C)c1=O (centres unmarked) | -56.6
13 | O=C(O)/C=C/C(=O)N(Cc1ccccc1)Cc1ccco1 | -0.557
14 | COc1ccc(NC(=S)NC23CC4CC(CC(C4)C2)C3)cc1OC | 3.45
15 | CCc1nn(C)c2c(=O)c(=O)c2n(C)[nH]1 | 22.7
16 | Cc1ccnc(N2CCCC(C(=O)Nc3nnc(C)s3)C2)n1 (centres unmarked) | -6.99
17 | COc1ccc(CN(C)CC(=O)NCC(=O)Nc2c(C)cccc2C)cc1 | -8.26
18 | CCOc1cc2c(C#N)c(N3CCCCC3)nc(N)c2c(N)n1 | -9.7
19 | COc1cccc(CNC(=O)c2ccc(Cl)c(NC3=NC4CS(=O)(=O)CC4S3)c2)c1 (centres unmarked) | 13.4
20 | O=C(CN1C(=O)NC2(CCCCC2)C1=O)Nc1ccc2[nH]c(=O)[nH]c2c1 | 8.6
21 | COc1ccccc1NC(=O)Cc1nn(C)c(=O)c2ccccc12 | 3.08
22 | Cc1nnc2sc(SCc3ccc(Br)cc3)nn2c1=O | 13.9
23 | Cc1cc(NC(=O)c2sccc2C)n(-c2cccc(Cl)c2)n1 | -13.2

Row | SMILES | hERG current change (%, negative = inhibition) at 10uM [%]
24 | Cn1cnnc1SCC(=O)c1ccc(OC(F)F)cc1 | -31.1
25 | CN1CCCC(CC2c3ccccc3Sc3ccccc32)C1.Cl.O (centres unmarked) | -52.9
26 | Cn1c(=O)n(C)c2cc(N3CCOCC3)c(NC(=O)c3cccc(Cl)c3)cc21 | 5.25
27 | COc1ccc(Br)cc1CN(C)CC(=O)Nc1c(Cl)ccc(C)c1Cl | 4.92
28 | C/C(CC1CC(COCC(C)C)OC1=O)=N\NC(N)=S (centres unmarked) | 0.131
29 | Fc1ccc(CCNC(=S)Nc2ccc(F)c(Cl)c2)cc1 | -16.4
30 | CCn1cc(/C=N/NC(=O)c2ccc3c(c2)OCO3)cn1 | -7.39
31 | CC(=O)NC1C(=O)N(CCN2CCOCC2)c2ccc(C)cc21 (centres unmarked) | 10.6
32 | CCOC(=O)c1cccc(NC(=O)CCS(=O)(=O)c2cccc3nsnc23)c1 | -10
33 | CN(C)S(=O)(=O)N1CCN(C(=O)N2CCCCC2)CC1 | 3.64
34 | CCOC(=O)c1c(NC(=O)CC2SC(N)=NC2=O)sc(C)c1C (centres unmarked) | 9.2
35 | CN(C)C(=O)c1noc2cc([N+](=O)[O-])ccc12 | -12
36 | CC(=O)O[C@H]1C[C@@H]2CC[C@@H]3[C@H](CC[C@]4(C)C(=O)CC[C@@H]34)[C@@]2(C)C[C@@H]1OC(C)=O | 8.33
37 | CN(CC(=O)Nc1ccccc1Cl)C(=O)COC(=O)C1=COCCO1 | 5.89
38 | CSc1ccccc1NC(=O)CN(C)C(=O)c1ccc(-n2cccn2)cc1 | -17.6
39 | CSc1nc2c(c(=O)[nH]1)C(c1ccc(F)cc1)CC(=O)N2 (centres unmarked) | 17.2
40 | COCCN1C(=O)N[C@@H](CCc2ccccc2)[C@H](C(=O)OC)[C@H]1C | 5.37
41 | Cc1ccc(C(=O)C(O)C(c2ccc(C)cc2)N2CCCCC2)cc1 (centres unmarked) | -21
42 | Cc1cc2c(cc(C(=O)NCCCN3CCOCC3)n2Cc2ccc(Cl)cc2)o1 | -36.4
43 | O=C(NC1CCCCC1)c1sc(=S)n2c1[nH]c(=O)c1ccccc12 | 15.8
44 | C/C(CCC1CC(C)OC1=O)=N/Nc1nc(-c2ccccc2)cs1 (centres unmarked) | -25.9
45 | CC(C)C1CC(c2csc(N)n2)CCO1 (centres unmarked) | 18.8
46 | CCCC(=O)Nc1ccc(C(=O)/C=C/c2ccc(SC)cc2)cc1 | 20.7

Row | SMILES | hERG current change (%, negative = inhibition) at 10uM [%]
47 | O=C(NC1CCCCC1)n1c(=O)oc2ccccc21 | 1.4
48 | CCOC(=O)C1CCN(c2c(NCc3ccc(N(C)C)cc3)c(=O)c2=O)CC1 | -5.97
49 | CC(=O)Nc1ccc(SCC(=O)Nc2ccccc2Oc2ccccc2)cc1 | -7.17
50 | CCOc1ccc(N(CC(=O)NCC2CCCO2)S(=O)(=O)c2ccc(SC)cc2)cc1 (centres unmarked) | -41.7
51 | COc1ccc(N2CCN(C(=O)c3cc(C4CC4)nn3-c3ccccc3)CC2)cc1 | -44.4
52 | Cc1c(C(=O)NC(C)c2ccc(-n3ccnc3)cc2)cccc1[N+](=O)[O-] (centres unmarked) | -74.1
53 | COc1ccc(C(=O)NCCS(=O)(=O)N2CCN(C(=O)c3ccco3)CC2)cc1 | -38.6
54 | COc1ccc(C(=O)NCCS(=O)(=O)N2CCc3ccccc3C2)cc1 | -3.39
55 | COc1ccccc1NC(=O)CSc1nnc(-c2ccoc2C)n1CC1CCCO1 (centres unmarked) | 6.73
56 | Cn1cc(C(=O)C(F)(F)F)c2ccccc21 | -3.79
57 | CC(C)(C)C(=O)O/N=C(\N)Cc1ccc(-c2csnn2)cc1 | 1.87
58 | Cc1cc(N2CC(C)OC(C)C2)n2cc(-c3ccccc3)nc2n1 (centres unmarked) | -61.7
59 | CN(C)[C@@H]1CCC[C@H]1OC(=O)C(c1ccccc1)c1ccccc1 | -65.2
60 | CC1C(=O)C(C)C(c2ccc(Cl)cc2)NC1c1ccc(Cl)cc1.Cl (centres unmarked) | 9.52
61 | CCN1CCCC1CN(Cc1cc2cc(C)ccc2[nH]c1=O)C(=O)Nc1ccccc1OC (centres unmarked) | -60
62 | CCCCc1c(C(=O)O)cc(OC)cc1C(=O)O | 10.6
63 | CC(C)CNC(=O)C1CCN(S(=O)(=O)c2ccc3c(c2)OCCO3)CC1 | -0.124
64 | COc1cc(NC(=O)c2cnc(NCc3ccccc3)nc2C)cc(OC)c1OC | 19.3
65 | Cc1ccc(S(=O)(=O)Nc2ccc(NC(=O)c3c(F)c(F)c(F)c(F)c3F)cc2)cc1 | -5.01
66 | O=C(CN1CCN(S(=O)(=O)c2ccccc2)CC1)Nc1ccc(N2CCOCC2)cc1 | 7.31
67 | O=c1[nH]c(N2CCCCCC2)nc2ncn(Cc3ccccc3)c12 | -21.7
68 | CC1(C)C(C=C(Cl)Cl)C1C(=O)N(Cc1ccc(Cl)cc1)C1CCS(=O)(=O)C1 (centres unmarked) | -14.2
69 | O=C(CNc1cccc2ccccc12)N/N=C/c1ccc(C(=O)O)cc1 | -0.125

Row | SMILES | hERG current change (%, negative = inhibition) at 10uM [%]
70 | Cc1cccc(NC(=O)CN2C(=O)NC3(CCCC3)C2=O)n1 | 6.63
71 | Cc1cc(F)c(F)c(C(=O)N2CCC(C)CC2)c1Cl | -3.97
72 | Br.CCCCn1c(=N)n(CC(=O)c2ccc(Br)s2)c2ccccc21 | -52.8
73 | Cc1ccccc1OCC(O)Cn1nnc2ccccc21 (centres unmarked) | 5.21
74 | Cc1cc(C)cc(NC(=O)C(=O)NCC2CCCO2)c1 (centres unmarked) | -13
75 | CC(C)(C)c1ccc(-c2nc(C#N)c(NCc3cccnc3)o2)cc1 | 10.6
76 | COc1cc(C(=O)NC(C)C2CC3CCC2C3)cc(OC)c1OC (centres unmarked) | 2.69
77 | O=C(CC(=O)Nc1ccccc1F)Nc1ccccc1F | 11.7
78 | CN1CCC(=NNc2ccc(S(=O)(=O)N3CCOCC3)cc2[N+](=O)[O-])CC1 | 5.76
79 | C#C[C@]1(O)CC[C@H]2[C@@H]3CCC4=Cc5oncc5C[C@]4(C)[C@H]3CC[C@@]21C | -15.3
80 | CCN(CC)CCNC(=O)CNC(=S)N(CCCN1CCOCC1)Cc1cccs1 | 15.7
81 | COc1ccccc1C(CNC(=O)CSc1ccc2ccccc2c1)N(C)C (centres unmarked) | -34.9
82 | Cc1ccc(NC(=O)CSc2n[nH]c(-c3ccncc3)n2)cc1 | -17.3
83 | COC(=O)c1ccc(N2CCN(C(C)=O)CC2)c(NC(=O)c2cccnc2)c1 | 0.267
84 | CCN(CC)S(=O)(=O)c1ccc(NS(=O)(=O)c2cccs2)cc1 | -11
85 | COCC1CCCN(Cc2cn(-c3ccccc3)nc2-c2ccc3c(c2)OCO3)C1 (centres unmarked) | -65.7
86 | Brc1ccc(-c2cnco2)cc1 | 5.95
87 | CN1CCN(c2ccc([N+](=O)[O-])cc2C(=O)c2ccc(Cl)cc2)CC1 | -67.4
88 | COc1ccc(NS(=O)(=O)c2cccc(C(=O)N/N=C(\C)c3ccncc3)c2)cc1 | -12.7
89 | O=C(NCc1ccc2c(c1)OCO2)c1cccc2c1C(=O)N(C1CCCCC1)C2 | 12

— article PMC4336329 (PLoS ONE, 2015)
